The other results are listed elsewhere or left out.
T1: UNK ZnF1-3 (human, UniProt Q9C0B0 31-174)
T1 sequence: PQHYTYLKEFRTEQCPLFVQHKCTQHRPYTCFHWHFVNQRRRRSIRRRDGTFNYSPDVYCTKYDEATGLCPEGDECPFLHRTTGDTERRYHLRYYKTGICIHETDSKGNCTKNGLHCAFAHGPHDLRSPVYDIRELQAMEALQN

B1: chr12:123346578:123346579:+_ENSG00000130787_ENST00000253083|hu_hu|FALSE|FALSE (ssRNA)
RNA: GGGAGUUCUACAGUCCGACGAUCAGCUCUAGCUCGGAAUAUUAAAAACACUAUUUUCUGAAGAGGAAUAUUAAAAACACUAUUUUCUGAAGAGUUGAGGCUCAGGCCUACCGGGUCCUGGCUGCACCCCAAAGUUCCUUCUGCCAACAGAGGAUUGAGCAUCA
B2: chr11:77340882:77340883:-_ENSG00000074201_ENST00000525064|hu_mus|motif|central (ssRNA)
RNA: GGGAGUUCUACAGUCCGACGAUCAACAUACAAAUGCUCUUGAGGGUAAGCGUUUGGAUCCCUGGACACCGCAUGUAAACGGAUGGUGGGGUAUUCCAGUGAGAAUCCUAAUCCCGAACCAUCUAACCAGGACAGGCGGCUCUCCAACAGAGGAUUGAGCAUCA
B3: chr2:38870762:38870763:+_ENSMUSG00000026755_ENSMUST00000090993|mus_mus|FALSE|FALSE (ssRNA)
RNA: GGGAGUUCUACAGUCCGACGAUCCCUGCAAAGAAUUUAGGAAUCAAUAAGACAAUUUCUCCCUCCACCUCAAAAGUAAAAUACAUUCCAGAAGAUGUGUCCUGAAGUAUUUAGUUGGGAGUUCUAGGAAGAUGGUCCAUUGUCCAACAGAGGAUUGAGCAUCA
B4: chr1:244855233:244855234:+_ENSG00000121644_ENST00000302550|hu_mus|hu_hu_hu_mus_True|48_108 (ssRNA)
RNA: GGGAGUUCUACAGUCCGACGAUCCAUUAAAUGAUAAGCGUUGCCCUUAUACUCUUUCCCCAGUUCUUCUACAAUUUUCUCUAUAUCAUCUUCUAGGAAGUCCGUACUUCCUAGAACAACAGCUUCUUUAAAUUUAAAUGUUUCCAACAGAGGAUUGAGCAUCA
B5: chr10:84155644:84155645:+_ENSMUSG00000034453_ENSMUST00000077175|mus_mus|motif|central (ssRNA)
RNA: GGGAGUUCUACAGUCCGACGAUCGCUGUAGCUCAUCACGGCAACAGUUGCGUUCUGGCCAGCCGGCAACUUCUCAAAAUCGGUCAACUCGAUUGUUUUUGUUUUAACCAUGGGCUUUUGUGGAUAUGCUAGUAGAUACAUAAGCAACAGAGGAUUGAGCAUCA
B6: 81609093_81609612_1819_CDS_ENSMUSG00000022390_ENSMUST00000109554|mouse|control|control (ssRNA)
RNA: GGGAGUUCUACAGUCCGACGAUCGCGGCCGAGGAGGACGUCCCUUCUGCACUUGUGCUCGAGGCCCUCACGGUAGGUAUAGUCGCCAGCCCUGGGGCCUGUUUUGGGGUAGCACAACUGGCAGGCCUGCUUGAACUCGUGGGUCAACAGAGGAUUGAGCAUCA
B7: chr1:66459500:66459501:+_ENSMUSG00000015222_ENSMUST00000114013|mus_mus|FALSE|FALSE (ssRNA)
RNA: GGGAGUUCUACAGUCCGACGAUCGAAGACAGGGGCAAAGGGUCGUGGUCCUUCUGAGACUCUCUCAUUCUUCAUAGUGUCUAAGGGAAGAGUGAAACUUCCACCAUGGAAGGGGCUUGGCAUGGGAGAGUCAAACUGCUUCCCCAACAGAGGAUUGAGCAUCA
B8: chr4:146681603:146681604:-_ENSG00000151612_ENST00000508784|hu_hu|FALSE|FALSE (ssRNA)
RNA: GGGAGUUCUACAGUCCGACGAUCAUUCACCCAACAGAAAACCAAAUGCACCAGUAUAUAAGCUUACAAGUGCUGAUUGCUAUUAAGGACACUCUCUUUAGGGUUUAACAAGACAAGAUUCCUUUCAGAGAAAAGUACGGAGAACAACAGAGGAUUGAGCAUCA
B9: chr18:13746249:13746250:+_ENSG00000101654_ENST00000262173|hu_mus|FALSE|FALSE (ssRNA)
RNA: GGGAGUUCUACAGUCCGACGAUCGUUUUCAUUGUUUUUAAUCUUUUCUUCAUAGAAUUCCAAAAAUGUUUUUUUGUAGAUUAGUUUCAUAUUAUACUUCUUUGCCAUUUCAGUUAGCAAUGGAAAAUAGACCAAGAAUUCAGGCAACAGAGGAUUGAGCAUCA
B10: 120829109_120830460_866_CDS_ENSG00000107581_ENST00000369144|human|control|control (ssRNA)
RNA: GGGAGUUCUACAGUCCGACGAUCUGGUUUUUUAGACAAGGAGAAUAGCCCGUGAAUAUCUUCCACAGCUUUGAAUGCUUCCUGCCACAAUUCCAUGCUGAUAGCACUGUCCAGCUGAACAAGUCUGGUUUCCAAAUGCAUGGACAACAGAGGAUUGAGCAUCA
B11: 42865057_42866260_6113_CDS_ENSG00000105429_ENST00000334370|human|control|control (ssRNA)
RNA: GGGAGUUCUACAGUCCGACGAUCGGAGCCCCCGCAGCCCAGCCUGUGGGCCUGAUCCCCGGACAAGCAGGCCCCAUGGCACCAGGUGCAGGCCCCAGACUGGUUACAAGCUUCAGGUGAGGACAGCAGGCGGCAGGGGUCAGGCAACAGAGGAUUGAGCAUCA
B12: chr18:52937122:52937123:-_ENSG00000196628_ENST00000354452|hu_mus|FALSE|FALSE (ssRNA)
RNA: GGGAGUUCUACAGUCCGACGAUCUAUACUGUCUGUUCCGUUGGCAGGGGGUGUGCAGGAAGAGGUGCUGUAAUGGUUUGUGCCACUACGAUGGAACGUGGACAUCGGAGGAAGACUGGAGUUGAUGUCUGCCGAGGAGUGGGACAACAGAGGAUUGAGCAUCA
B13: chr7:141445308:141445309:+_ENSG00000106028_ENST00000265304|hu_hu|hu_hu_hu_mus_False|18_68 (ssRNA)
RNA: GGGAGUUCUACAGUCCGACGAUCUAUGAUUGUUGUUGCUUGCCGCCUCACAUUGUUUUUAUCCAUGUAUUCACCAUAGUCCACUUUCCCUUCCACAAAUAUACGAGCCCCCUUUUUCACAUAUUGAUAUGCCACAUCUCUGAGCAACAGAGGAUUGAGCAUCA
B14: chr4:25749455:25749456:-_ENSG00000091490_ENST00000264868|hu_hu|hu_hu_hu_mus_False|1_1 (ssRNA)
RNA: GGGAGUUCUACAGUCCGACGAUCGCACUAUGACCUCUAGAAAAAUCCACAGGGGGAAAAAAUGUAAACCAAUGUACAAUGUUAUCGCCUUCCCUGUGUGUGGAGUGUUUGUCUCAAGGCUCCUUCUAGCUGCUGGACUGCUAGCAACAGAGGAUUGAGCAUCA
B15: chr17:64631184:64631185:-_ENSMUSG00000024083_ENSMUST00000172818|mus_mus|FALSE|FALSE (ssRNA)
RNA: GGGAGUUCUACAGUCCGACGAUCUGGCUUGUUACACAGCAAUCUGCAGCAGUGUAAGUUUAAUCAGUAAGUGCCAUAACUAGUCAACAGUACAUAAAAGAAAACAAACAAACAAACCACACAAUUCACAAAUAUCCACAGUAUCAACAGAGGAUUGAGCAUCA
B16: 48487616_48487736_109_5pUTR_ENSMUSG00000039347_ENSMUST00000040361|mouse|control|control (ssRNA)
RNA: GGGAGUUCUACAGUCCGACGAUCAUGCUCAGGUGGGGUAUCAGAUCGAACGGCAGACUCUAAGCAGGUGCAAGUCUCGGCAGAGGGCUGUGCGCAUGCGCAACGGAAUCUCAGCCGGGAAGGCCCUGGACCAAGCGAAUCUGCCAACAGAGGAUUGAGCAUCA
B17: 7505514_7506983_708_CDS_ENSMUSG00000024758_ENSMUST00000025667|mouse|control|control (ssRNA)
RNA: GGGAGUUCUACAGUCCGACGAUCCAGCUCGGCGAGAAUCAGAAGGGUAAUUCCAUUAAAAACAGCACCAACAUAGGUCAUCAGCCACAUGAAGACAGCCAGCUUCAAGGAGUCAACCAAGUCUUCUACCAGAAAGAGACGAAUCAACAGAGGAUUGAGCAUCA
B18: chr5:36814161:36814162:+_ENSMUSG00000029198_ENSMUST00000031099|mus_hu|FALSE|FALSE (ssRNA)
RNA: GGGAGUUCUACAGUCCGACGAUCAGUUCAUUAAUGCAGUUGGGCAACCGGCUUUUCUGUUUAGCCACUGGUUACUUAAGGUUUCCAAUAAGGUUUGGGAAAAGGUCACACGUACUCAUAGAUGAGAAACAAUGAACCAGCCUUCAACAGAGGAUUGAGCAUCA
B19: 97424773_97425521_2069_CDS_ENSMUSG00000021670_ENSMUST00000022176|mouse|control|control (ssRNA)
RNA: GGGAGUUCUACAGUCCGACGAUCAGAGAUCAUGUUCAUGCCCAUGGCGUCCCCCGUCCUGGACUGGAAACGGAUAUAGAGGUUGCGUCCUGCCAUCGUCACGUGGAGUUUCUGUAGACGAGCAAAUCUGCUGGUGCUAUCAAACAACAGAGGAUUGAGCAUCA
B20: 215785255_215792339_1908_CDS_ENSG00000136636_ENST00000259154|human|control|control (ssRNA)
RNA: GGGAGUUCUACAGUCCGACGAUCGCCUGUGAACAAGUAGCGCCUUGGUCUUGAGCCCAUCCUACUGGAUCCCUCACAUUCCCUCACUGUAAAUGAGGAUAUUGUAGUACAGUCAACAGCCUGGAUCUCACAUAUUCUUUUUCCCAACAGAGGAUUGAGCAUCA
B21: 102240484_102240604_513_CDS_ENSMUSG00000027189_ENSMUST00000102573|mouse|control|control (ssRNA)
RNA: GGGAGUUCUACAGUCCGACGAUCACUGUCUUCCUCGGUCUCGCUCUCUUCUUCCGACUCACUGUCUACCUCCGUCUCGCUCUCUUCUUCCCCGACCUCGCUCUCUACCUCCCCCUCGGCCUCCCCUUUGGCCUCGCCGUCUUCCAACAGAGGAUUGAGCAUCA
B22: chr3:160150142:160150143:+_ENSG00000113810_ENST00000344722|hu_mus|FALSE|FALSE (ssRNA)
RNA: GGGAGUUCUACAGUCCGACGAUCAAAACCAGCCAUAAAUUCAUUCAGCCUUUGUUUUCGAAGAUCUUCAUAUGCUUGUCUAAAAUUAUCUCUUUCAGAAGUAAUUUUGUCCAGUUCGGCUACUCUUUGCAAAUAUAAAUCUUCCAACAGAGGAUUGAGCAUCA

molecular target: T1, UNK ZnF1-3; assay: nsRBNS (natural sequence RNA bind-n-seq); RBNS binding buffer (assumed for nsRBNS): 25 mM Tris pH 7.5, 150 mM KCl, 3 mM MgCl2, 0.01% Triton X-100, 500 ug/ml BSA, 20 U/ml SUPERase-In, 4 C; UNK is unkempt and MSI1 is Musashi-1; names of the RNAs are library labels; protein concentration not given here; high values mean tight binding

Binder | binding signal
B1 | 1.47 enrichment R
B2 | 1.36 enrichment R
B3 | 1.6 enrichment R
B4 | 1.25 enrichment R
B5 | 1 enrichment R
B6 | 0.897 enrichment R
B7 | 0.82 enrichment R
B8 | 1.56 enrichment R
B9 | 0.612 enrichment R
B10 | 0.618 enrichment R
B11 | 0.719 enrichment R
B12 | 1.26 enrichment R
B13 | 0.739 enrichment R
B14 | 1.02 enrichment R
B15 | 1.57 enrichment R
B16 | 0.494 enrichment R
B17 | 1.75 enrichment R
B18 | 1.44 enrichment R
B19 | 1.14 enrichment R
B20 | 1.27 enrichment R
B21 | 0.45 enrichment R
B22 | 0.425 enrichment R

From publication PMC12136788
